Experimental data from PubChem BioAssay (NCI).
“And” between values parts separate entries of the source, which are not always exact repeats. Equal values may be shown once.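 Interpolation was linear, between the two tested concentrations surrounding the appropriate level; five concentrations were tested over 48 hours in 96-well plates. GI50 marks 50% less growth. TGI marks complete inhibition of growth.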 Numbered stars: 1 amine (or outer) side, 2 acyl side, 3 side chain; on linkers, the order of the positions; unused ones are H or OH. Bridge positions count the residues as written; N and C are the ends. Square brackets hold non-standard residues; d marks the D form. Peptide text beside a SMILES is read from it. I, II: the chains in the order shown. Actinocin(9to1) = Cc1c2oc3c(C)ccc(C(=O)[*:1])c3nc-2c(C(=O)[*:2])c(N)c1=O; NMeV = CN[CH](C(=O)O)C(C)C; Sar = CNCC(=O)O

Each compound was assayed on NCI-H322M lung (assay: inhibition of tumour cell growth, NCI panel, 48 h).

Structure (SMILES) | TGI | GI50
C=C(C)C(=O)[C@@]12C(=O)[C@@H](C)CC[C@H]1[C@H](C)C[C@@H]2C=C(C)C | > 100 µM | –
COc1cc(CC2c3cc(OC)c(OC)cc3CCN2C)c(Oc2cc3c(cc2OC)-c2c(O)c(OC)cc4c2C(C3)N(C)CC4)cc1OC (stereo not given) | 45.2 µM | –
O=[Se](=O)c1ccccc1.O=[Se](=O)c1ccccc1.[Cu] | 29.4 µM | 15.6 µM
Cc1c2oc3c(C)ccc(C(=O)NC4C(=O)NC(C(C)O)C(=O)N5CCCC5C(=O)N(C)CC(=O)N(C)C(C(C)C)C(=O)OC4C)c3nc-2c(C(=O)NC2C(=O)NC(C(C)O)C(=O)N3CCCC3C(=O)N(C)CC(=O)N(C)C(C(C)C)C(=O)OC2C)c(N)c1=O (stereo not given) (I: TTP[Sar][NMeV] / II: TTP[Sar][NMeV]; ester I:1-I:C, II:1-II:C; linker I:N-II:N via Actinocin(9to1); configuration not given here) | > 23.3 µM | –
CCCCOP1(=O)C=C(C)C(=C(Cl)Cl)C(C)=C1 (stereo not given) | 54.8 µM | –
O=C(OCc1ccccc1)C1(N2CN(C3(C(=O)OCc4ccccc4)CCCC3)CN(C3(C(=O)OCc4ccccc4)CCCC3)C2)CCCC1 | > 10 µM | –
Cc1sc(/N=C/c2c[nH]c3ccccc23)c(C#N)c1C | > 100 µM | –
COC(=O)/C=C/c1cc(O)c2c(c1)[C@H](C(=O)OC)[C@@H](c1ccc(O)c(O)c1)O2 | > 100 µM | –
CC(C)c1ccc(/C=C2\CSCC3=C2NC(=S)NC3c2ccc(C(C)C)cc2)cc1 (stereo not given) | > 100 µM | –
COc1cc2c(cc1O)CC13CCC(=O)N1CCc1cc(OC)c(O)c-2c13 (stereo not given) | > 6.81 µM | –
NC(=O)C#CC(N)=O | 362 µM and > 100 µM | –
CCOC(=O)C(=Cc1ccc(C(=O)OC)cc1)C(=O)OCC | 21 µM | –
CN(C)Cc1cc(O)c(O)c(CN(C)C)c1 | > 100 µM | –
CCCCc1ccc(Nc2ncc3[nH]cnc3n2)cc1 | > 100 µM | –
O=C1COc2ccc([N+](=O)[O-])cc2C(=O)C1 | > 10 µM | –
O=c1[nH]cnc2[nH]ncc12 | > 5000 µM | 316 µM
O=C(C(=O)N1CC2C=CC1CC2)c1c[nH]c2ccccc12 (stereo not given) | > 100 µM | –
Cc1cccc(C2=NC(C)(C)C(C)(C)N=C2c2cccc(C)n2)n1 | > 100 µM | –
NC1=NC(c2ccc(Cl)cc2)C2=C(N1)/C(=C/c1ccc(Cl)cc1)CCC2 (stereo not given) | > 100 µM | 31.3 µM
COc1cccc(/C=C/c2cnc3ccccc3n2)c1OC | > 100 µM | –
COc1ccc(/C=C/C(=O)Oc2cc(O)cc(O)c2)cc1 | > 100 µM | –
CCOc1nc(-c2ccccc2)cc(-c2ccc(N3CCOCC3)cc2)c1C#N | > 100 µM | –

Structure (SMILES) | TGI | GI50
O=C1CN(C(=O)c2ccccc2)Cc2[nH]c3ccccc3c21 | > 100 µM | –
C#CC(F)(F)[C@]1(O)CC[C@H]2[C@@H]3CCC4=CC(=O)CCC4=C3[C@@H](c3ccc(C(C)=O)cc3)C[C@@]21C | > 100 µM | 26.5 µM
COc1ccccc1NC(=O)C1=C(C)NC(C)=C(C(=O)Nc2ccccc2OC)C1c1ccc(C)cc1 | > 100 µM | –
Cc1nc2ccc(S(=O)(=O)O)cc2c(=O)n1-c1ccc(C(=O)NN2C(=O)C(Cl)C2c2ccccc2O)cc1 (stereo not given) | > 100 µM | –
O=C(CC(=O)N1N=C(N2c3ccccc3Sc3ccccc32)CC1c1ccccc1)Nc1ccc(Cl)cc1 (stereo not given) | > 100 µM | –
Oc1[nH]c2ccccc2c1N=Nc1nc(-c2ccc(Cl)c(Cl)c2)cs1 | > 100 µM | –
Cc1cc(Nc2ncnc3ccc(NC4=NC(C)(C)CO4)cc23)ccc1Oc1ccn2ncnc2c1 | 42.5 µM and > 10 µM | 10.6 µM and > 10 µM
CC1=CCC23C(C1)OC(Br)(C=CC2(C)O)C3(C)C (stereo not given) | > 100 µM | –
CN(NC(=O)CCCl)C1=NCCCCN1 | > 100 µM | –
NS(=O)(=O)c1cccc(N=Cc2c(O)[nH]c3ccccc23)c1 | > 25 µM | > 25 µM
C=CC1CC12C(=O)C1OC2(C)C2C(=O)c3c(O)ccc(O)c3C(=O)C12 (stereo not given) | 18.6 µM | 6.52 µM
[N-]=[N+]=CC(=O)OCC1SCCCS1 | > 100 µM | –
COc1ccc2c(c1)C(c1ccccc1Cl)=Nc1c(n[nH]c1C)N2 | > 25 µM | > 25 µM
O=C1/C(=C/c2ccccc2[N+](=O)[O-])N=C(c2ccccc2)N1C1Nc2cc3c(cc2S1)NC(N1C(=O)/C(=C/c2ccccc2[N+](=O)[O-])N=C1c1ccccc1)S3 (stereo not given) | > 100 µM | –
Cn1cc(-c2cnc3ccc4ccc(CS(=O)(=O)NCc5ccccn5)cc4c(=O)c3c2)cn1 | > 100 µM | 21.2 µM
CCCNC(C#N)c1ccc(C(C#N)NCCC)cc1 (stereo not given) | > 100 µM | –
Nc1ccccc1N/C=C\C(=O)C(Cl)(Cl)Cl | > 100 µM | –
Cc1cn(CC2=NCC(C)(C)N2)c(=O)[nH]c1=O | > 100 µM | –
CC[C@H](C)[C@H]1NC(=O)[C@@H](NC(=O)[C@@H](CC(C)C)N(C)CC2CCCN2C(=O)C(C)=O)[C@@H](C)OC(=O)[C@H](Cc2ccc(OC)cc2)N(C)C(=O)C2CCCN2C(=O)[C@H](CC(C)C)NC(=O)[C@@H](C)C(=O)[C@H](C(C)C)OC(=O)C[C@@H]1O (stereo not given in full) | 0.0154 µM | –
COc1ccc(-n2c3c(c4c(CN5CCOCC5)c(O)ccc42)CCc2ccccc2C3=O)cc1 | > 100 µM | > 100 µM
Cc1c2c[n+](C(C)C)ccc2c(C)c2c1[nH]c1ccccc12 | 39.7 µM | 3.36 µM
COC(OC)C1OC(CO)C(n2ccc(N)nc2=O)C1O (stereo not given) | > 100 µM | –

Structure (SMILES) | TGI | GI50
NC(=O)c1ccc2c(c1)S(=O)(=O)c1ccccc1C2=O | > 100 µM | –
CO[C@@H]1CC(=O)C2(CC(=O)O[C@@H]2/C=C(\C)CCC=C(C)C)C[C@@H]1O (stereo not given in full) | 2.91 µM | 1.05 µM
O=c1c2cc(I)ccc2nc(Sc2ncccc2[N+](=O)[O-])n1Cc1ccccc1 | > 100 µM | –
O=C(c1ccccc1)c1ccc2nc(-c3c(Cl)c(Cl)c(Cl)c(Cl)c3C(=O)N/N=C/c3ccccc3)[nH]c2c1 | > 100 µM | –
COc1ccc2c(c1)N=C1CSC(c3ccccc3Cl)N1C2 (stereo not given) | 34.7 µM | –
CC(=O)OCC1OC(OC2CC3C(C)(C)C(O)CC[C@]3(C)C3CCC45CC4(CC[C@H]5C(C)CC(O)C4OC4(C)C)[C@]23C)C(O)C(O)C1O (stereo not given in full) | 13.6 µM and 26.3 µM | 13.2 µM
CC(=O)CCCCO | > 100 µM | –
c1cn2cc(-c3ccc4cn[nH]c4c3)nc(Nc3ccc(N4CCOCC4)cc3)c2n1 | 43.1 µM | 15.3 µM
NC(=S)Nc1[nH]c(=S)nc2c1SC1=N/C(=C\c3ccco3)C(=O)N12 | > 100 µM | –
O=C(c1ccco1)c1c(C(F)(F)F)n([O-])c2ccccc2[n+]1=O | 21.8 µM | 5.64 µM
Cc1cc(C)c(O)c(CN(C)Cc2cc(Cl)cc(Cl)c2O)c1 | – | 1.9 µM
c1ccc(-c2nc(-c3ccccc3)c(-c3ccccc3)[nH]2)cc1 | > 100 µM | –
CCSC1=C(C)N(C=NC(C)(C)C)CC1 | > 100 µM | –
O=C(N/N=C/c1ccc([N+](=O)[O-])cc1)c1ccc2nc(-c3ccc(Cl)cc3)[nH]c2c1 | 26.4 µM | 5.04 µM
[N-]=[N+]=NCc1cccc(Nc2cc(=O)[nH]c(=O)[nH]2)c1 | > 100 µM | –
NC(=O)C(c1ccccc1)N1CCOCC1 (stereo not given) | > 100 µM | –
COc1cc(/C=C2\CN(C)C/C(=C\c3cc(CN4CCCCC4)c(O)c(OC)c3)C2=O)cc(CN2CCCCC2)c1O | 12.5 µM | 3.2 µM
O=C1C=C(Br)c2c(Br)sc(Br)c21 | 45 µM | –
C=C(c1ccc(C(=O)N(C)c2ccccc2N)cc1)C(C)N1C(=O)[C@H]2CCCN2C(=O)c2ccccc21 (stereo not given in full) | > 100 µM | 76.3 µM
O=C(O)c1cc2cc(OCc3ccccc3)c(OCc3ccccc3)cc2[nH]1 | 57.1 µM | 23 µM
COC(=O)c1cc(C#N)[nH]c1-c1ccc(C)s1 | > 100 µM | –
COC(=O)/C=C1\CCC(C)(C(=O)NS(=O)(=O)c2ccc(C)cc2)C1(C)C (stereo not given) | > 100 µM | –
